Results are given in words; binding and its absence hold for the method and conditions named. Some binding calls cover weakened binding; strength is not graded here. Tags and fused reporters may be left off the sequences shown.
Columns and labels:
GFP-USP1^G667A (human) = biological target: T1, GFP-USP1^G667A (human) (UniProt O94782); test: nuclear relocation assay; 293T cells co-transfected with UAF1-mRFP and a GFP- or YFP-tagged nuclear DUB variant; nuclear accumulation of UAF1-mRFP seen by confocal microscopy in fixed cells (live cells too for USP1 WT, S313A, S313D; also after USP1 siRNA)
T1 sequence: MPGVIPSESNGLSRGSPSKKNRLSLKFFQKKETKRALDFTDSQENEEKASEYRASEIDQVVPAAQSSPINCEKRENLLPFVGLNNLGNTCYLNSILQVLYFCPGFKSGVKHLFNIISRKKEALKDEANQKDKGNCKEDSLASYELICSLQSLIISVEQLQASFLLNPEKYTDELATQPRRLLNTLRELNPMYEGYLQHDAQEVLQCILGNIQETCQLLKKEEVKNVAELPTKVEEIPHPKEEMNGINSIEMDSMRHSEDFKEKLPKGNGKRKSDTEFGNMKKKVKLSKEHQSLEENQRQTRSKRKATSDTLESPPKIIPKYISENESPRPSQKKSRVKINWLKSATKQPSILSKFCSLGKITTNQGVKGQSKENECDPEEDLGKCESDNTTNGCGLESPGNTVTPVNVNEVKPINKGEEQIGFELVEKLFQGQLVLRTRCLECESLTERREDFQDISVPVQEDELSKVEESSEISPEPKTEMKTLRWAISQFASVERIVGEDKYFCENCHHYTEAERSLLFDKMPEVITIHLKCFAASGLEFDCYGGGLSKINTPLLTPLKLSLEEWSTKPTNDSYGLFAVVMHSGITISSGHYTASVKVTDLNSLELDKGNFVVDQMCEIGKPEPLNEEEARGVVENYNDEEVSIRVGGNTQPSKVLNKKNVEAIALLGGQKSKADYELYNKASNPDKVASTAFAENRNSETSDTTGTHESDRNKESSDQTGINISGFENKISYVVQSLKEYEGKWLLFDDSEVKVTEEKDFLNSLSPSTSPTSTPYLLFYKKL

By UniProt entry, the sequences of proteins in these tests, tags left out.
UniProt Q8TAF3: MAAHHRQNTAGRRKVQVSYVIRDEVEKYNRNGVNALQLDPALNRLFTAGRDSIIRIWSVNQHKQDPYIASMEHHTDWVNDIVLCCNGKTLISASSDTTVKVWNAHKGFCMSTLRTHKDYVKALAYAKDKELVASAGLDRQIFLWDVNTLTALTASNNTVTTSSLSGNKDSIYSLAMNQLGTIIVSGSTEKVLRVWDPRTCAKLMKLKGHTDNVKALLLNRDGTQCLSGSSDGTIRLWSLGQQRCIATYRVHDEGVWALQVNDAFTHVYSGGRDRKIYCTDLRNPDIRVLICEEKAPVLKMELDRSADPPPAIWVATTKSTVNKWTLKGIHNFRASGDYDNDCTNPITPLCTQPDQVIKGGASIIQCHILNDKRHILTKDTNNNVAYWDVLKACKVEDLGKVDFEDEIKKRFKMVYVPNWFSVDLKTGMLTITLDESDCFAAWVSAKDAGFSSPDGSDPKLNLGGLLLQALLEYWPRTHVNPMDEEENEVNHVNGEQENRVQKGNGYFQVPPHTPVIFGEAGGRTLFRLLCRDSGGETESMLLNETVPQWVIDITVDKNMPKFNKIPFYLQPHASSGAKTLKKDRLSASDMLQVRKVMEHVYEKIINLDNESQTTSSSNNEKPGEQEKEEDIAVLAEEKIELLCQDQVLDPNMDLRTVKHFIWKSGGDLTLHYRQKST

[1] = biological target: T2, YFP-USP1(235–408) (human) (UniProt O94782); test: as above
T2 sequence: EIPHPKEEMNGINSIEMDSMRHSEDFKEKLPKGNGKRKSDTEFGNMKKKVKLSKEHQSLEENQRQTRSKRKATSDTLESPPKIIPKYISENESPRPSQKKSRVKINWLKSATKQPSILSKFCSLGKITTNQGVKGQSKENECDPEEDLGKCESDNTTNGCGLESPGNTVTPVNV

UAF1-mRFP (from UniProt Q8TAF3 1-677) was tested, and the binding (GFP-USP1^G667A (human)) was “binds” and the binding [1] was “no binding”.

From PMC4326527
